Laboratory results reported in PubChem BioAssay AID485294 (National Center for Advancing Translational Sciences (NCATS), 2010).
In all, about 370,000 compounds went through this assay and about 150 (0.041%) were called active. Inconclusive means that the source gave no clear call. Such entries were picked first, then a sample of the others. The call rests on the fitted dose curve; in most records, active means well fitted inhibition curve with a large enough effect; inconclusive means small, poorly fitted or top-dose-only effect; inactive means flat fitted curve, though single readings scatter. No potency is given beside an inconclusive call; the fits are too rough.

Biological target: Beta-lactamase (Escherichia coli (strain K12)) (UniProt P00811)
Sequence of UniProt P00811 (P00811 whole entry, looked up): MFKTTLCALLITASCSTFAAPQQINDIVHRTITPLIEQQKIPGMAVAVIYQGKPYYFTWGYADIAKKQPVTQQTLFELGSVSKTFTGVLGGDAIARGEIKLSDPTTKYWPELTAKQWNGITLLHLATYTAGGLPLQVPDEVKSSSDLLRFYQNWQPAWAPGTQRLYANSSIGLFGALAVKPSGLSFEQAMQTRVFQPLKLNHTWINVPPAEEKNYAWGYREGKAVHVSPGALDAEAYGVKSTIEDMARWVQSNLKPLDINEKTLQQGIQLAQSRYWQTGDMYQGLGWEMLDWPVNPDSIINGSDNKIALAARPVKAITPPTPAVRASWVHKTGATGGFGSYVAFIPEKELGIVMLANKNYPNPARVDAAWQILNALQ
Assay: qHTS Inhibitors of AmpC Beta-Lactamase (assay with detergent); further: nearly all actives have a fitted effect of over 25% in size
Conditions: AmpC hydrolysis of nitrocefin, absorbance 480 nm, 0.01% Triton; series mostly up to 114 µM
Summary of the method: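 AmpC (5.3 nM in the dispensed reagent) in 20 mM phosphate pH 7.0 with 0.01% (detergent screen) or 0.0001% Triton X-100 was preincubated with compounds for 15 min at room temperature. Nitrocefin was then added from an 800 uM solution, and hydrolysis was followed at 480 nm.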
Potency means the concentration at half of the fitted maximal effect; tags describe the fitted curve by direction and shape.

SMILES	Potency
CCCCNc1ccc(C(=O)OCCOCCOCCOCCOCCOCCOCCOCCOCCOC)cc1	inconclusive [inhibitor, full curve, poor fit]
Cc1ccc(CSc2nnc3ccc(-c4ccncc4)nn23)cc1	inconclusive [inhibitor, full curve, poor fit]
CC(O)CN=c1cc(-c2ccccc2)oc2ccc(Cl)cc12 (stereo not given)	inconclusive [inhibitor, full curve, poor fit]
COc1cc2c(cc1OC)CN(S(=O)(=O)/C=C/c1ccccc1)CC2	inactive
CCOc1c(CNCCCSc2nc(C)cc(C)n2)cccc1OC	inconclusive [inhibitor, full curve, poor fit]
Cc1nc2ccccc2c2oc(C(=O)Nc3ccc(C(C)C)cc3)cc12	inactive
COc1ccc(Nc2nc(N)nc(CSC(=S)N3CCOCC3)n2)cc1	inactive
C=CCn1c(CCNC(=O)c2cccs2)nnc1SCC(=O)Nc1cccc(C(C)=O)c1	inconclusive [inhibitor, full curve, poor fit]
Cc1ccc(C#CC(C)(O)C(C)(C)C)cn1 (stereo not given)	inconclusive [inhibitor, partial curve, poor fit]
CCc1noc(C)c1C(=O)OCC(=O)Nc1ccccc1SC	inconclusive [inhibitor, full curve]
CNCC(C)COc1ccccc1OCc1ccccc1 (stereo not given)	inconclusive [inhibitor, single point]
O=C(OCCO)c1cc(Cl)c(C(=O)OCCO)cc1Cl	inconclusive [inhibitor, full curve, poor fit]
Cc1ccc2nc(SCC(=O)c3c(C)[nH]c4ccccc34)[nH]c2c1	inactive
O=C(OCc1cc(=O)n2nc(C3CC3)sc2n1)c1cccc(NC(=O)c2ccccc2Cl)c1	inactive
Cc1cccc(-c2nc(=S)c3c(n2Cc2ccco2)CCCC3)c1	inconclusive [inhibitor, full curve, poor fit]
CC(C)(C#N)C(C)(C)c1nn[nH]n1	inconclusive [inhibitor, full curve, poor fit]
O=C(CN1C2CCCC1CC(NC(=O)C1CCCCC1)C2)NCc1ccc(F)cc1 (stereo not given)	inconclusive [inhibitor, single point]
CCOC(=O)c1cccc(NC(=O)COc2ccc3c(C)cc(=O)oc3c2)c1	inactive
Cc1ccc(C2Nc3cccc4cccc(c34)N2)s1	inconclusive [inhibitor, partial curve, poor fit]
COc1cc2nc(NCCc3cccc(C)c3)n3nc(-c4ccccc4)nc3c2cc1OC	inactive
COc1cc(/C=N/Nc2ccc([N+](=O)[O-])cc2S(=O)(=O)N2CCOCC2)cc(OC)c1OC	inactive
COc1ccc(Cc2nnc(NC(=O)c3ccc(Cl)c([N+](=O)[O-])c3)s2)cc1	inactive
CCN(C(=O)c1c(C)oc2ncnc(N3CCCCC3)c12)c1cc(C)ccc1C	inactive
O=C(C1=C(O)C(=O)N(CCCN2CCOCC2)C1c1ccncc1)c1cc2ccccc2o1 (stereo not given)	inconclusive [inhibitor, single point]

SMILES	Potency
CCOC(=O)c1ccccc1NC(=O)CSc1ccc(-c2sc(C)nc2C)nn1	inactive
COc1cccc(C(=O)Nn2cnnc2)c1	inactive
Cc1ccc(N(Cc2cccs2)C(=O)c2ccc(OC(C)C)cc2)cc1	inactive
O=C(O)c1cn[nH]c1-c1cccc([N+](=O)[O-])c1	inconclusive [inhibitor, full curve, poor fit]
Cn1c(SCc2ccc(F)cc2)nc2ccc(C(=O)NCc3cccc(Cl)c3)cc21	inactive
NCCCC[C@@H]1NC(=O)c2cc([N+](=O)[O-])cc(I)c2SC[C@@H](C(=O)NCC(N)=O)NC(=O)CNC1=O	inconclusive [inhibitor, full curve]
COc1ccc(N2CCN(C(=O)Cc3csc(NC(=O)Nc4ccccc4OC)n3)CC2)cc1	inconclusive [inhibitor, partial curve]
CN(c1ccc(OCC(=O)OCC(=O)NCc2ccco2)cc1)S(=O)(=O)c1ccc2ccccc2c1	inactive
O=C(CSc1ccc(-c2ccccc2)nn1)Nc1ccc2c(c1)OCCO2	inactive
CCOC(=O)N1CCC(NC(=O)CC(NS(=O)(=O)c2ccc(C)cc2)c2ccco2)CC1 (stereo not given)	inconclusive [inhibitor, partial curve]
COC(=O)CCN(C(=O)c1ccc(OC(C)=O)cc1)c1ccccn1	inconclusive [inhibitor, full curve, poor fit]
Cc1cc(NC(=O)CSc2cn(C)c3ccccc23)no1	inconclusive [inhibitor, full curve, poor fit]
O=C(Cc1c(F)cccc1Cl)N/N=C/c1cccnc1	inconclusive [inhibitor, full curve]
NC(=O)CC(NC(=O)Cc1cccc2ccccc12)c1ccc(N2CCCCCC2)c([N+](=O)[O-])c1 (stereo not given)	inconclusive [inhibitor, full curve]
Cc1ccc(N2C(=O)c3ccccc3NC2c2ccccc2O)cc1 (stereo not given)	inactive
N#CCCCN1C(=O)C(O)(CC(=O)c2ccc3c(c2)OCCO3)c2ccccc21 (stereo not given)	inconclusive [inhibitor, full curve, poor fit]
CCOc1ccccc1NC(=O)Cn1c(=O)nc(-c2ccccc2F)c2cc(Cl)ccc21	inactive
CCn1cc(-c2nnnn2-c2ccc(Cl)cc2)c(=O)c2ccccc21	inconclusive [inhibitor, full curve, poor fit]
CCC(C)c1ccc(Nc2ncccc2C#N)cc1 (stereo not given)	inconclusive [inhibitor, partial curve, poor fit]
Cc1ccc(C)n1-c1cc([N+](=O)[O-])ccc1-n1ccnc1	inactive
CCOc1ccc(S(=O)(=O)Nc2ccccc2C(=O)N(C)C2CCN(C)CC2)cc1	inconclusive [inhibitor, full curve, poor fit]
CCc1ccc(CNC(=O)CN2C(=O)C3CCCCN3c3ccc(C(=O)N4CCCC4)cc32)cc1 (stereo not given)	inconclusive [inhibitor, full curve, poor fit]
COc1ccc(N2CSC3=C(C#N)C(c4ccc(OC)c(OC)c4)CC(=O)N3C2)c(OC)c1 (stereo not given)	inconclusive [inhibitor, partial curve, poor fit]
CCC(C)N(C(=O)c1csnn1)C(C(=O)NCc1ccc(F)cc1)c1ccco1 (stereo not given)	inconclusive [inhibitor, full curve, poor fit]

SMILES	Potency
C/C(=N\NC(=S)Nc1ccc(F)cc1)c1ccc2c(c1)OCCO2	inactive
CC(=O)c1cccc(NC(=O)Nc2cnn(Cc3ccc(F)cc3)c2)c1	inconclusive [inhibitor, full curve]
CCCNC(=O)CN1C(=O)COc2ccc(S(=O)(=O)N3CCCCCC3)cc21	inconclusive [inhibitor, single point]
COc1ccc2cc(C(N)=O)c(=Nc3ccccc3)oc2c1	inconclusive [inhibitor, partial curve]
COc1ccc(CCNCc2ccc(OCc3ccccc3)cc2)cc1	inactive
Cc1ccc(-c2nnc(SCc3ccccc3)o2)cc1	inactive
CCN(CC)c1ccc(-c2n[nH]c(=S)n2-c2ccccc2C)cc1	inactive
Cc1ccc(C)c(N2CCN(CCCNC(=O)c3cnn(-c4cccc(Cl)c4)c3C3CCN(C(=O)OC(C)(C)C)CC3)CC2)c1	inactive
Cc1ccc(NC(=O)Cc2cn3ccsc3n2)nc1	inconclusive [inhibitor, full curve, poor fit]
CCOc1ccc(OCC(=O)NCc2n[nH]c(=O)c3ccccc23)cc1	inconclusive [inhibitor, full curve, poor fit]
CCN1C(=O)NC(=O)/C(=C\c2cn(CC(=O)N3CCCC3)c3ccccc23)C1=O	inactive
CC(=O)NC1CCN(CC(=O)Nc2nccs2)CC1	inconclusive [inhibitor, full curve, poor fit]
CCc1cccc(OCC(=O)Nc2ccc(S(=O)(=O)Nc3onc(C)c3C)cc2)c1	inconclusive [inhibitor, full curve, poor fit]
Cc1nc(C)c(-c2ccccc2)c(=O)[nH]1	inconclusive [inhibitor, partial curve]
Cc1ccnc(NS(=O)(=O)c2cccs2)c1	inactive
COc1ccc2c(OC)cc(=O)n(C)c2c1	inconclusive [inhibitor, partial curve]
O=C(O)/C(=C\c1ccco1)NC(=O)c1ccco1	inconclusive [inhibitor, partial curve]
Nc1c(Cl)ncnc1N/N=C/c1cccc(O)c1	inconclusive [inhibitor, single point]
CC(=O)c1cccc(NC(=O)C(C)OC(=O)c2cccc(S(=O)(=O)N3CCN(C)CC3)c2)c1 (stereo not given)	inconclusive [inhibitor, full curve, poor fit]
Cc1cccc(-n2c(O)c(C=NC34CN5CN(CN(C5)C3)C4)c(=O)[nH]c2=O)c1	inconclusive [inhibitor, partial curve, poor fit]
Cc1ccc2nc3ccc(N4CCCC4)nn3c(=O)c2c1	inactive
CCOC(=O)C1CCCN(C(=O)C2CCN(S(=O)(=O)c3cccs3)CC2)C1 (stereo not given)	inconclusive [inhibitor, partial curve, poor fit]
